# Source: the BET-seq Pho4 binding data (Le et al. 2018)
# This is one part of the list. These are noisy estimates, calculated here from bound and input reads.
# Molecular target: T1, Pho4 (S. cerevisiae) (UniProt P07270)
# T1 sequence: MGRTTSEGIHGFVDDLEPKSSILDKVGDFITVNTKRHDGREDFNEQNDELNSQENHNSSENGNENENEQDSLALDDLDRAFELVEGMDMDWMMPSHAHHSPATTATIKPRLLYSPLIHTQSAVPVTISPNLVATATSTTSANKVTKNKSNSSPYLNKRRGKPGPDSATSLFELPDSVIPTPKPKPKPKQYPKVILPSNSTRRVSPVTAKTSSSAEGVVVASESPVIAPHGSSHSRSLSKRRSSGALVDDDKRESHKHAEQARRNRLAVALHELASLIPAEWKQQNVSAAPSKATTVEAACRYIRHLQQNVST
# Assay: relative binding free energy (BET-seq); higher = weaker binding
# Conditions: reference: library average
row,Sequence,relative binding free energy
1,TTGTTCACGTGGCGAG,0.2 kcal/mol
2,TGTAGCACGTGCGATG,-0.05 kcal/mol
3,AATTCCACGTGGTGTG,-0.12 kcal/mol
4,GTTGTCACGTGAGCCG,0.39 kcal/mol
5,CTGTTCACGTGTGGAA,0.41 kcal/mol
6,TAAGGCACGTGTTATG,-0.07 kcal/mol
7,ATGGTCACGTGATGCA,0.24 kcal/mol
8,GTTATCACGTGGCTTG,0.14 kcal/mol
9,TGAGGCACGTGGTTGC,-0.13 kcal/mol
10,TGACTCACGTGGTTGA,0.18 kcal/mol
11,TATGGCACGTGGGTGG,-0.17 kcal/mol
12,TGGGGCACGTGAATAT,0.2 kcal/mol
13,GTTGTCACGTGTTCAG,0.12 kcal/mol
14,TAGATCACGTGCGGCG,0.32 kcal/mol
15,TTGTGCACGTGGGGGT,-0.07 kcal/mol
16,TTCAACACGTGGAGTT,0.06 kcal/mol
17,TTTTCCACGTGAAGGA,0.36 kcal/mol
18,TAGTACACGTGGTCTG,-0.11 kcal/mol
19,TCGCTCACGTGCGTGG,0.21 kcal/mol
20,CTATTCACGTGGTATT,0.19 kcal/mol
21,CAGGTCACGTGGCGTG,-0.08 kcal/mol
22,GTAGACACGTGGTTAT,-0.07 kcal/mol
23,AAGTACACGTGGTATG,0 kcal/mol

row,Sequence,relative binding free energy
1,AAGTTCACGTGCGGGA,0.17 kcal/mol
2,GTTATCACGTGGAGAT,0.36 kcal/mol
3,AGTTGCACGTGGGGCC,-0.14 kcal/mol
4,CTGTGCACGTGGGGGG,-0.23 kcal/mol
5,TTGGTCACGTGGATGG,0.08 kcal/mol
6,ATGGGCACGTGCGCGA,-0.16 kcal/mol
7,GGTATCACGTGTAAAA,0.23 kcal/mol
8,GGATACACGTGAAGGT,0.17 kcal/mol
9,GTATCCACGTGCGGGT,0.01 kcal/mol
10,GTGGACACGTGTTTCA,0 kcal/mol
11,TTTGGCACGTGTATCA,-0.03 kcal/mol
12,TTGTTCACGTGGTGGG,0.28 kcal/mol
13,GCCGGCACGTGTGGAG,0.01 kcal/mol
14,GCGAGCACGTGTTAGG,-0.13 kcal/mol
15,TTAGTCACGTGGTGCC,-0.02 kcal/mol
16,AATCACACGTGTTTGG,0.03 kcal/mol
17,AGGATCACGTGGCTAG,0.12 kcal/mol
18,CAGTTCACGTGATAGG,0.22 kcal/mol
19,AAGGACACGTGATGTT,0.21 kcal/mol
20,TTTCACACGTGTAGGC,0.18 kcal/mol
21,GGAGTCACGTGTCGGA,0.28 kcal/mol
22,TGCTACACGTGCAGGG,0.15 kcal/mol
23,CATAGCACGTGCGTGT,-0.06 kcal/mol

row,Sequence,relative binding free energy
1,TTTTGCACGTGTGGGA,0.09 kcal/mol
2,TTACTCACGTGGGTAT,0.04 kcal/mol
3,GGAAACACGTGAGGTT,0.17 kcal/mol
4,TTAGCCACGTGGAGGG,0.05 kcal/mol
5,TGGAGCACGTGGTCTA,-0.16 kcal/mol
6,GAGTGCACGTGTTGCA,0.03 kcal/mol
7,TGTTGCACGTGGACTG,-0.05 kcal/mol
8,TGAAACACGTGTTTAG,0.06 kcal/mol
9,GCTTACACGTGGTGGA,0.05 kcal/mol
10,TCGGGCACGTGTATTG,-0.24 kcal/mol
11,TTGTTCACGTGCGTGG,0.3 kcal/mol
12,TTTATCACGTGTTAAA,0.21 kcal/mol
13,TTGGGCACGTGCTACT,-0.04 kcal/mol
14,GCCGGCACGTGGTGGT,-0.15 kcal/mol
15,TGCCGCACGTGGTTGT,-0.14 kcal/mol
16,ACATGCACGTGATTTT,0.05 kcal/mol
17,TATATCACGTGTTGAT,0.12 kcal/mol
18,GTGATCACGTGATAGA,0.48 kcal/mol
19,TAATGCACGTGTGCGG,-0.05 kcal/mol
20,TTGTTCACGTGGGCGA,0.09 kcal/mol
21,AAAGGCACGTGGAATA,0.09 kcal/mol
22,TTACACACGTGTGTGT,0.01 kcal/mol
23,TAAGGCACGTGGGACA,-0.23 kcal/mol

row,Sequence,relative binding free energy
1,CATTTCACGTGAGTTG,0.23 kcal/mol
2,TGTTGCACGTGCTGCA,-0.18 kcal/mol
3,GTCTTCACGTGAAGGT,0.39 kcal/mol
4,TTAGTCACGTGGGATT,0.06 kcal/mol
5,TTGGTCACGTGGGAGT,0.01 kcal/mol
6,TTATTCACGTGACAGT,0.16 kcal/mol
7,GGAATCACGTGTAGGC,0.19 kcal/mol
8,GTTTGCACGTGCGAGA,0.05 kcal/mol
9,ACGGGCACGTGAGAGG,0.18 kcal/mol
10,TTTTTCACGTGCGAAG,0.29 kcal/mol
11,TTATTCACGTGGGTCG,0.2 kcal/mol
12,TTGAGCACGTGCTCGG,-0.2 kcal/mol
13,AATTGCACGTGCTATT,0.1 kcal/mol
14,AGACTCACGTGGTGTA,0.12 kcal/mol
15,TTGTTCACGTGGTCCG,0.31 kcal/mol
16,GGTCACACGTGGAGGA,0.11 kcal/mol
17,AGGGTCACGTGAAGAT,0.4 kcal/mol
18,AAGTGCACGTGGAATG,-0.09 kcal/mol
19,TAATGCACGTGAGGTT,0.13 kcal/mol
20,TTGAGCACGTGGGTGT,-0.16 kcal/mol
21,GAGTACACGTGATGGG,0.28 kcal/mol
22,GATAGCACGTGGTAGG,-0.13 kcal/mol
23,GTGTTCACGTGAGGTG,0.5 kcal/mol

row,Sequence,relative binding free energy
1,GGAGGCACGTGGATTG,-0.11 kcal/mol
2,TGGGGCACGTGATTCT,-0.09 kcal/mol
3,AGTCGCACGTGGCGAG,-0.1 kcal/mol
4,TGTTGCACGTGAGTAC,0.17 kcal/mol
5,AGTACCACGTGTTGTG,-0.11 kcal/mol
6,TCGTACACGTGATTGA,0.31 kcal/mol
7,TTCGACACGTGGGTCG,-0.01 kcal/mol
8,TCGATCACGTGTAAGT,0.27 kcal/mol
9,GAGTTCACGTGGAATT,0.41 kcal/mol
10,AAGAGCACGTGAATGT,0.22 kcal/mol
11,AGTTCCACGTGGTGGC,0.08 kcal/mol
12,CGCTGCACGTGTTGGT,0.04 kcal/mol
13,TGTTTCACGTGAGGCT,0.31 kcal/mol
14,GGAGCCACGTGTGATT,0.17 kcal/mol
15,AAATGCACGTGTCTGG,0 kcal/mol
16,GTTTACACGTGTTGAT,0.09 kcal/mol
17,TGCTTCACGTGGGAAT,0.2 kcal/mol
18,GTGGGCACGTGCGTTA,-0.26 kcal/mol
19,CTTAGCACGTGTCGTT,-0.01 kcal/mol
20,TTGGGCACGTGTTAGC,0 kcal/mol
21,GTTTACACGTGGAGGT,0.21 kcal/mol
22,TCTGGCACGTGGGACG,-0.14 kcal/mol
23,ATTGTCACGTGTGAGG,0.23 kcal/mol
